# Data as given in article PMC7663100.
# By UniProt entry, the sequences of proteins in these tests, tags left out. Where a name states a change or a piece, a line headed by the entry shows the natural chain unless it says otherwise.
# UniProt Q14145: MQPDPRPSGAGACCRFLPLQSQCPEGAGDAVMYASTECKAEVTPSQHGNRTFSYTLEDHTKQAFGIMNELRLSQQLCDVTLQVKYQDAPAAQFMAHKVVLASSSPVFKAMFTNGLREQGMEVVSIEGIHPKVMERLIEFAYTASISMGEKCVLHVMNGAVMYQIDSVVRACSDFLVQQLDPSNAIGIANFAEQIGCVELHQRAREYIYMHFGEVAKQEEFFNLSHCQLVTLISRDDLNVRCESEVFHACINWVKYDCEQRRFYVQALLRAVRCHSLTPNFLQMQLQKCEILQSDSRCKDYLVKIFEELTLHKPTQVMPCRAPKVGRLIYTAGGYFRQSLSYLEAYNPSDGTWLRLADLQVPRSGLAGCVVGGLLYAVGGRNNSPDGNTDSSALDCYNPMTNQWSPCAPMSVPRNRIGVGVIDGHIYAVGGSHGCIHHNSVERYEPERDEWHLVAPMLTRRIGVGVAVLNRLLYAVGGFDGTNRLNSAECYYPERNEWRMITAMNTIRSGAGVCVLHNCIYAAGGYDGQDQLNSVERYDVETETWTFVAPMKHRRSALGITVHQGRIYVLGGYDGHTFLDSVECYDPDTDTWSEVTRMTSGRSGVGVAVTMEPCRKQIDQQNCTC
# These are yes or no findings as the source states them, for the method shown. For some assays here: In cells and extracts the contact can be indirect. Some entries that bind do so weakly or less than the wild type. For some assays here: Tags and fused reporters may be left off the sequences shown.
# T1: MINERVA^FL (full length human MINERVA, residues Met1–Phe746), recombinant with N-terminal His6-tag (human) (UniProt Q96TA1)
# T1 sequence: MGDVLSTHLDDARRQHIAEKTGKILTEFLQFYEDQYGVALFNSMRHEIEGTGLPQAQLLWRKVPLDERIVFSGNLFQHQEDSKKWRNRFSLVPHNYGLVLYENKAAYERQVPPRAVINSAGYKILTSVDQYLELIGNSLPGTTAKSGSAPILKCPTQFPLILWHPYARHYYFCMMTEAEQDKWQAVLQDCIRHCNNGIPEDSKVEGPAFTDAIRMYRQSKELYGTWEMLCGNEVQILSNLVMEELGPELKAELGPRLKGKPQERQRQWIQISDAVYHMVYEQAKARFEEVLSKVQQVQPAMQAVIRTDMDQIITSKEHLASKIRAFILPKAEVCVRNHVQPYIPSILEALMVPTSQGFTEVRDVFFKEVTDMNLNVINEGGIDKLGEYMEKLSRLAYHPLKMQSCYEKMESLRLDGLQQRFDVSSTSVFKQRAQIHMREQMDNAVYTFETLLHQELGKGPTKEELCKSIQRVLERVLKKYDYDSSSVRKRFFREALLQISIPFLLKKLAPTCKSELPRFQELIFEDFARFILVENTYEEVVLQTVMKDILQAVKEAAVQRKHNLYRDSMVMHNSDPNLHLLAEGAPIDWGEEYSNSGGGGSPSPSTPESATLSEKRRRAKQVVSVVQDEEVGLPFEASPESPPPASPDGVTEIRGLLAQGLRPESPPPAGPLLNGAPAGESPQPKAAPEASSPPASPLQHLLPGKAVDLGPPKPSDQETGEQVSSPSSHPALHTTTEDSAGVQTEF
# T2: C-terminal trypsin fragment of MINERVA^ΔC (approximately 50 kDa, beginning at Ser146) (human) (UniProt Q96TA1)
# T2 sequence: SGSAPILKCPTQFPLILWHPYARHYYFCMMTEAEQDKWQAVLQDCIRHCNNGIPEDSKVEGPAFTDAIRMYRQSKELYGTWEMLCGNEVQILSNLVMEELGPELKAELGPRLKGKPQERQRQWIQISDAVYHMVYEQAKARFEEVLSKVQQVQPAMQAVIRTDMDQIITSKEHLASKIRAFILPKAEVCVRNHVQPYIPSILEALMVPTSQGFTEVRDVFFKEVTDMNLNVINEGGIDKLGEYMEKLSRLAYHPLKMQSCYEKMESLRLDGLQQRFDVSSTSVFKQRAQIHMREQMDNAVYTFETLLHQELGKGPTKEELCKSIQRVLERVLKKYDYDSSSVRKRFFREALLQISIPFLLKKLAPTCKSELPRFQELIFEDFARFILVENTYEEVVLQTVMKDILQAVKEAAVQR
# Key:
# [1] = biological target: T1, MINERVA^FL (full length human MINERVA, residues Met1–Phe746), recombinant with N-terminal His6-tag (human); experiment: SPR; Biacore T200; MINERVA^FL amine-coupled on CM5 chip; Keap1^321–609 injected at 78.1–10,000 nM, 30 μL/min; 10 mM HEPES, 150 mM NaCl, pH 7.4; 1:1 binding model and steady state affinity model; both purified
# HA-tagged Keap1 = HA-tagged Keap1 (UniProt Q14145); experiment: co-IP; HA-Keap1 and FLAG-MINERVA constructs co-expressed in HEK293T; lysis in 1% NP-40, 20 mM Tris-HCl (pH 7.5), 150 mM NaCl; HA-Keap1 immunoprecipitated with anti-HA and protein A beads, western blot
# [2] = biological target: T2, C-terminal trypsin fragment of MINERVA^ΔC (approximately 50 kDa, beginning at Ser146) (human); experiment: SEC; trypsin-digested MINERVA^ΔC (5000:1 trypsin ratio, 4 °C, 20 h) on HiLoad 16/600 Superdex200 pg, 20 mM Tris-HCl (pH 8.0), 200 mM NaCl; fractions on SDS-PAGE; both purified
# [3] = biological target: MINERVA^ΔC (C-terminally truncated human MINERVA, residues Met1–Ser574), recombinant with C-terminal His6-tag (human) (UniProt Q96TA1); experiment: SEC-MALS; Superdex 200 Increase 10/300 GL, 20 mM Tris-HCl (pH 8.0), 200 mM NaCl; 2 mg protein injected, 0.5 mL/min; both purified
molecule,measurement,setting,value
"Keap1^321–609 (N- and C-terminally truncated Keap1, residues Ala321–Thr609, containing the Kelch domain) (from UniProt Q14145 321-609) (domain or fragment)",binding,[1],binds
"FLAG-tagged MINERVA^ΔN (residues Thr307–Phe746) (domain or fragment, UniProt Q96TA1 307-746) TDMDQIITSKEHLASKIRAFILPKAEVCVRNHVQPYIPSILEALMVPTSQGFTEVRDVFFKEVTDMNLNVINEGGIDKLGEYMEKLSRLAYHPLKMQSCYEKMESLRLDGLQQRFDVSSTSVFKQRAQIHMREQMDNAVYTFETLLHQELGKGPTKEELCKSIQRVLERVLKKYDYDSSSVRKRFFREALLQISIPFLLKKLAPTCKSELPRFQELIFEDFARFILVENTYEEVVLQTVMKDILQAVKEAAVQRKHNLYRDSMVMHNSDPNLHLLAEGAPIDWGEEYSNSGGGGSPSPSTPESATLSEKRRRAKQVVSVVQDEEVGLPFEASPESPPPASPDGVTEIRGLLAQGLRPESPPPAGPLLNGAPAGESPQPKAAPEASSPPASPLQHLLPGKAVDLGPPKPSDQETGEQVSSPSSHPALHTTTEDSAGVQTEF",binding,HA-tagged Keap1,binds
"N-terminal trypsin fragment of MINERVA^ΔC (approximately 14 kDa, Gly2–Lys145) (domain or fragment, UniProt Q96TA1 2-145) GDVLSTHLDDARRQHIAEKTGKILTEFLQFYEDQYGVALFNSMRHEIEGTGLPQAQLLWRKVPLDERIVFSGNLFQHQEDSKKWRNRFSLVPHNYGLVLYENKAAYERQVPPRAVINSAGYKILTSVDQYLELIGNSLPGTTAK",binding,[2],binds
"FLAG-tagged MINERVA^ΔC (residues Met1–Ser574) (domain or fragment, UniProt Q96TA1 1-574) MGDVLSTHLDDARRQHIAEKTGKILTEFLQFYEDQYGVALFNSMRHEIEGTGLPQAQLLWRKVPLDERIVFSGNLFQHQEDSKKWRNRFSLVPHNYGLVLYENKAAYERQVPPRAVINSAGYKILTSVDQYLELIGNSLPGTTAKSGSAPILKCPTQFPLILWHPYARHYYFCMMTEAEQDKWQAVLQDCIRHCNNGIPEDSKVEGPAFTDAIRMYRQSKELYGTWEMLCGNEVQILSNLVMEELGPELKAELGPRLKGKPQERQRQWIQISDAVYHMVYEQAKARFEEVLSKVQQVQPAMQAVIRTDMDQIITSKEHLASKIRAFILPKAEVCVRNHVQPYIPSILEALMVPTSQGFTEVRDVFFKEVTDMNLNVINEGGIDKLGEYMEKLSRLAYHPLKMQSCYEKMESLRLDGLQQRFDVSSTSVFKQRAQIHMREQMDNAVYTFETLLHQELGKGPTKEELCKSIQRVLERVLKKYDYDSSSVRKRFFREALLQISIPFLLKKLAPTCKSELPRFQELIFEDFARFILVENTYEEVVLQTVMKDILQAVKEAAVQRKHNLYRDSMVMHNS",binding,HA-tagged Keap1,no binding
"MINERVA^ΔC (C-terminally truncated human MINERVA, residues Met1–Ser574), recombinant with C-terminal His6-tag (domain or fragment, UniProt Q96TA1 1-574) MGDVLSTHLDDARRQHIAEKTGKILTEFLQFYEDQYGVALFNSMRHEIEGTGLPQAQLLWRKVPLDERIVFSGNLFQHQEDSKKWRNRFSLVPHNYGLVLYENKAAYERQVPPRAVINSAGYKILTSVDQYLELIGNSLPGTTAKSGSAPILKCPTQFPLILWHPYARHYYFCMMTEAEQDKWQAVLQDCIRHCNNGIPEDSKVEGPAFTDAIRMYRQSKELYGTWEMLCGNEVQILSNLVMEELGPELKAELGPRLKGKPQERQRQWIQISDAVYHMVYEQAKARFEEVLSKVQQVQPAMQAVIRTDMDQIITSKEHLASKIRAFILPKAEVCVRNHVQPYIPSILEALMVPTSQGFTEVRDVFFKEVTDMNLNVINEGGIDKLGEYMEKLSRLAYHPLKMQSCYEKMESLRLDGLQQRFDVSSTSVFKQRAQIHMREQMDNAVYTFETLLHQELGKGPTKEELCKSIQRVLERVLKKYDYDSSSVRKRFFREALLQISIPFLLKKLAPTCKSELPRFQELIFEDFARFILVENTYEEVVLQTVMKDILQAVKEAAVQRKHNLYRDSMVMHNS",binding,[3],no binding (tested: 2 mg injected)
